# The list shows a part of the results.
# B1: EULS2 M4 (Oryza sativa) (protein)
# chain: MVYCRANPNYAMTARNGAVVLAPANPKDEYQHWIKDMRWSTSIKDEEGYPAFALVNKATGQAIKHSLGQSHPVRLVPYNPEVMDESVLWTESRDVGNGFRCIRMVNNIYLNFDAFHGDKYHGGVRDGTDIVLWKWCEGDSLRWKIQPYYILEQKLISEEDLNSAVDHHHHHH
# Experiments:
# Experiment in all cases: glycan array binding signal (z-score within array); higher = stronger binding
# Details in all cases: glycan notation: IUPAC condensed, linker removed
# [1] = biological target: Fuc(a1-2)Gal(b1-4)GlcNAc(b1-3)Gal(b1-4)GlcNAc(b1-3)Gal(b1-4)GlcNAc
# Method in brief: (§1)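 Glycan array data were curated from 3228 arrays in the Consortium for Functional Glycomics database and kept only where the protein sequence was available. Glycan names were converted to IUPAC-condensed notation, and columns mapping to the same glycan were averaged. The binding signal is a within-array Z-score, averaged across arrays of the same protein sequence at different concentrations or buffers and across linkers. Negative Z-scores can be read as non-binding.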
# [2] = biological target: Fuc(a1-2)Gal(b1-4)GlcNAc(b1-3)GalNAc
# Method in brief: as §1
# [3] = biological target: Fuc(a1-2)Gal(b1-4)GlcNAc(b1-3)[Fuc(a1-2)Gal(b1-4)GlcNAc(b1-6)]GalNAc
# Method in brief: as §1
# [4] = biological target: Fuc(a1-2)Gal(b1-4)GlcNAc(b1-3)[Fuc(a1-3)[Gal(b1-4)]GlcNAc(b1-6)]Gal(b1-4)Glc
# Method in brief: as §1
# [5] = biological target: Fuc(a1-2)Gal(b1-4)GlcNAc(b1-6)GalNAc
# Method in brief: as §1
# [6] = biological target: Fuc(a1-2)Gal(b1-4)GlcNAc6S
# Method in brief: as §1
# [7] = biological target: Fuc(a1-2)Gal(b1-4)[Fuc(a1-3)]GlcNAc
# Method in brief: as §1
# [8] = biological target: Fuc(a1-2)Gal(b1-4)[Fuc(a1-3)]GlcNAc(b1-2)Man(a1-3)[Fuc(a1-2)Gal(b1-4)[Fuc(a1-3)]GlcNAc(b1-2)Man(a1-6)]Man(b1-4)GlcNAc(b1-4)[Fuc(a1-6)]GlcNAc
# Method in brief: as §1
# [9] = biological target: Fuc(a1-2)Gal(b1-4)[Fuc(a1-3)]GlcNAc(b1-2)[Fuc(a1-2)Gal(b1-4)[Fuc(a1-3)]GlcNAc(b1-4)]Man(a1-3)[Fuc(a1-2)Gal(b1-4)[Fuc(a1-3)]GlcNAc(b1-2)Man(a1-6)]Man(b1-4)GlcNAc(b1-4)GlcNAc
# Method in brief: as §1
# [10] = biological target: Fuc(a1-2)Gal(b1-4)[Fuc(a1-3)]GlcNAc(b1-3)Gal(b1-4)[Fuc(a1-3)]GlcNAc
# Method in brief: as §1
# [11] = biological target: Fuc(a1-2)Gal(b1-4)[Fuc(a1-3)]GlcNAc(b1-3)Gal(b1-4)[Fuc(a1-3)]GlcNAc(b1-3)Gal(b1-4)[Fuc(a1-3)]GlcNAc
# Method in brief: as §1
# [12] = biological target: Fuc(a1-2)Gal(b1-4)[Fuc(a1-3)]GlcNAc(b1-3)GalNAc
# Method in brief: as §1
# [13] = biological target: Fuc(a1-2)Gal(b1-4)[Fuc(a1-3)]GlcNAc(b1-3)[Neu5Ac(a2-6)Gal(b1-4)GlcNAc(b1-6)]Gal(b1-4)Glc
# Method in brief: as §1
# [14] = biological target: Fuc(a1-2)Gal3S(b1-4)GlcNAc
# Method in brief: as §1
# [15] = biological target: Fuc(a1-2)Gal6S(b1-3)GlcNAc
# Method in brief: as §1
# [16] = biological target: Fuc(a1-2)Gal6S(b1-3)GlcNAc6S
# Method in brief: as §1
# Fuc(a1-2)Gal6S(b1-4)Glc = biological target: Fuc(a1-2)Gal6S(b1-4)Glc
# Method in brief: as §1
# [17] = biological target: Fuc(a1-2)Gal6S(b1-4)Glc6S
# Method in brief: as §1
# Fuc(a1-2)[Gal(a1-3)]Gal = biological target: Fuc(a1-2)[Gal(a1-3)]Gal
# Method in brief: as §1
# [18] = biological target: Fuc(a1-2)[Gal(a1-3)]Gal(b1-3)GalNAc
# Method in brief: as §1
# [19] = biological target: Fuc(a1-2)[Gal(a1-3)]Gal(b1-3)GalNAc(b1-3)Gal(a1-4)Gal(b1-4)Glc
# Method in brief: as §1
# [20] = biological target: Fuc(a1-2)[Gal(a1-3)]Gal(b1-3)GlcNAc
# Method in brief: as §1
# [21] = biological target: Fuc(a1-2)[Gal(a1-3)]Gal(b1-3)GlcNAc(b1-2)Man(a1-3)[Fuc(a1-2)[Gal(a1-3)]Gal(b1-3)GlcNAc(b1-2)Man(a1-6)]Man(b1-4)GlcNAc(b1-4)GlcNAc
# Method in brief: as §1
# [22] = biological target: Fuc(a1-2)[Gal(a1-3)]Gal(b1-3)GlcNAc(b1-2)Man(a1-3)[Fuc(a1-2)[Gal(a1-3)]Gal(b1-3)GlcNAc(b1-2)Man(a1-6)]Man(b1-4)GlcNAc(b1-4)[Fuc(a1-6)]GlcNAc
# Method in brief: as §1
# [23] = biological target: Fuc(a1-2)[Gal(a1-3)]Gal(b1-3)GlcNAc(b1-3)GalNAc
# Method in brief: as §1
# [24] = biological target: Fuc(a1-2)[Gal(a1-3)]Gal(b1-3)GlcNAc(b1-6)GalNAc
# Method in brief: as §1
# [25] = biological target: Fuc(a1-2)[Gal(a1-3)]Gal(b1-4)Glc
# Method in brief: as §1
# [26] = biological target: Fuc(a1-2)[Gal(a1-3)]Gal(b1-4)GlcNAc
# Method in brief: as §1
# [27] = biological target: Fuc(a1-2)[Gal(a1-3)]Gal(b1-4)GlcNAc(b1-2)Man
# Method in brief: as §1
# [28] = biological target: Fuc(a1-2)[Gal(a1-3)]Gal(b1-4)GlcNAc(b1-2)Man(a1-3)[Fuc(a1-2)[Gal(a1-3)]Gal(b1-4)GlcNAc(b1-2)Man(a1-6)]Man(b1-4)GlcNAc(b1-4)GlcNAc
# Method in brief: as §1
# [29] = biological target: Fuc(a1-2)[Gal(a1-3)]Gal(b1-4)GlcNAc(b1-2)Man(a1-3)[Fuc(a1-2)[Gal(a1-3)]Gal(b1-4)GlcNAc(b1-2)Man(a1-6)]Man(b1-4)GlcNAc(b1-4)[Fuc(a1-6)]GlcNAc
# Method in brief: as §1
# [30] = biological target: Fuc(a1-2)[Gal(a1-3)]Gal(b1-4)GlcNAc(b1-3)GalNAc
# Method in brief: as §1
# [31] = biological target: Fuc(a1-2)[Gal(a1-3)]Gal(b1-4)GlcNAc(b1-3)[Fuc(a1-2)[Gal(a1-3)]Gal(b1-4)GlcNAc(b1-6)]GalNAc
# Method in brief: as §1
# [32] = biological target: Fuc(a1-2)[Gal(a1-3)]Gal(b1-4)GlcNAc(b1-6)GalNAc
# Method in brief: as §1
# [33] = biological target: Fuc(a1-2)[Gal(a1-3)]Gal(b1-4)[Fuc(a1-3)]Glc
# Method in brief: as §1
# [34] = biological target: Fuc(a1-2)[Gal(a1-3)]Gal(b1-4)[Fuc(a1-3)]GlcNAc
# Method in brief: as §1
# [35] = biological target: Fuc(a1-2)[Gal(a1-3)]Gal(b1-4)[Fuc(a1-3)]GlcNAc(b1-3)GalNAc
# Method in brief: as §1
# [36] = biological target: Fuc(a1-2)[Gal(a1-4)]Gal(b1-4)GlcNAc
# Method in brief: as §1
# [37] = biological target: Fuc(a1-2)[GalNAc(a1-3)]Gal
# Method in brief: as §1
# [38] = biological target: Fuc(a1-2)[GalNAc(a1-3)]Gal(b1-3)GalNAc(a1-3)[Fuc(a1-2)]Gal(b1-4)GlcNAc
# Method in brief: as §1
# [39] = biological target: Fuc(a1-2)[GalNAc(a1-3)]Gal(b1-3)GalNAc(b1-3)Gal(a1-4)Gal(b1-4)Glc
# Method in brief: as §1
# [40] = biological target: Fuc(a1-2)[GalNAc(a1-3)]Gal(b1-3)GlcNAc
# Method in brief: as §1
# [41] = biological target: Fuc(a1-2)[GalNAc(a1-3)]Gal(b1-3)GlcNAc(b1-2)Man(a1-3)[Fuc(a1-2)[GalNAc(a1-3)]Gal(b1-3)GlcNAc(b1-2)Man(a1-6)]Man(b1-4)GlcNAc(b1-4)GlcNAc
# Method in brief: as §1
# [42] = biological target: Fuc(a1-2)[GalNAc(a1-3)]Gal(b1-3)GlcNAc(b1-2)Man(a1-3)[Fuc(a1-2)[GalNAc(a1-3)]Gal(b1-3)GlcNAc(b1-2)Man(a1-6)]Man(b1-4)GlcNAc(b1-4)[Fuc(a1-6)]GlcNAc
# Method in brief: as §1
# [43] = biological target: Fuc(a1-2)[GalNAc(a1-3)]Gal(b1-3)GlcNAc(b1-3)GalNAc
# Method in brief: as §1
binder,measurement,setting,value
B1,glycan array binding signal (z-score),[1],-0.532
same,glycan array binding signal (z-score),[2],-0.362
same,glycan array binding signal (z-score),[3],-0.253
same,glycan array binding signal (z-score),[4],-0.777
same,glycan array binding signal (z-score),[5],-0.469
same,glycan array binding signal (z-score),[6],-0.42
same,glycan array binding signal (z-score),[7],0.022
same,glycan array binding signal (z-score),[8],0.413
same,glycan array binding signal (z-score),[9],-0.19
same,glycan array binding signal (z-score),[10],-0.523
same,glycan array binding signal (z-score),[11],-0.454
same,glycan array binding signal (z-score),[12],-0.416
same,glycan array binding signal (z-score),[13],-0.466
same,glycan array binding signal (z-score),[14],0.052
same,glycan array binding signal (z-score),[15],1.41
same,glycan array binding signal (z-score),[16],-0.078
same,glycan array binding signal (z-score),Fuc(a1-2)Gal6S(b1-4)Glc,-0.539
same,glycan array binding signal (z-score),[17],1.14
same,glycan array binding signal (z-score),Fuc(a1-2)[Gal(a1-3)]Gal,-0.474
same,glycan array binding signal (z-score),[18],-0.015
same,glycan array binding signal (z-score),[19],-0.596
same,glycan array binding signal (z-score),[20],0.663
same,glycan array binding signal (z-score),[21],-0.597
same,glycan array binding signal (z-score),[22],-0.336
same,glycan array binding signal (z-score),[23],0.259
same,glycan array binding signal (z-score),[24],-0.272
same,glycan array binding signal (z-score),[25],1.83
same,glycan array binding signal (z-score),[26],-0.032
same,glycan array binding signal (z-score),[27],-0.562
same,glycan array binding signal (z-score),[28],-0.435
same,glycan array binding signal (z-score),[29],-0.402
same,glycan array binding signal (z-score),[30],-0.467
same,glycan array binding signal (z-score),[31],1.24
same,glycan array binding signal (z-score),[32],-0.289
same,glycan array binding signal (z-score),[33],-0.09
same,glycan array binding signal (z-score),[34],1.49
same,glycan array binding signal (z-score),[35],1.57
same,glycan array binding signal (z-score),[36],0.658
same,glycan array binding signal (z-score),[37],-0.348
same,glycan array binding signal (z-score),[38],0.21
same,glycan array binding signal (z-score),[39],-0.473
same,glycan array binding signal (z-score),[40],0.527
same,glycan array binding signal (z-score),[41],0.515
same,glycan array binding signal (z-score),[42],-0.456
same,glycan array binding signal (z-score),[43],-0.261
